The list shows a part of the results.
What was measured:
Test in all cases: glycan array binding signal (z-score within array); higher = stronger binding
Details in all cases: glycan notation: IUPAC condensed, linker removed
Fuc(a1-2)Gal = target: Fuc(a1-2)Gal
How it was run: (§1)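 Glycan array data were curated from 3228 arrays in the Consortium for Functional Glycomics database and kept only where the protein sequence was available. Glycan names were converted to IUPAC-condensed notation, and columns mapping to the same glycan were averaged. The binding signal is a within-array Z-score, averaged across arrays of the same protein sequence at different concentrations or buffers and across linkers. Negative Z-scores can be read as non-binding.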

Fuc(a1-2)Gal(b1-3)GalNAc = target: Fuc(a1-2)Gal(b1-3)GalNAc
How it was run: as §1

[1] = target: Fuc(a1-2)Gal(b1-3)GalNAc(a1-3)[Fuc(a1-2)]Gal(b1-4)Glc
How it was run: as §1

[2] = target: Fuc(a1-2)Gal(b1-3)GalNAc(a1-3)[Fuc(a1-2)]Gal(b1-4)GlcNAc
How it was run: as §1

[3] = target: Fuc(a1-2)Gal(b1-3)GalNAc(b1-3)Gal
How it was run: as §1

[4] = target: Fuc(a1-2)Gal(b1-3)GalNAc(b1-3)Gal(a1-4)Gal(b1-4)Glc
How it was run: as §1

[5] = target: Fuc(a1-2)Gal(b1-3)GalNAc(b1-4)[Neu5Ac(a2-3)]Gal(b1-4)Glc
How it was run: as §1

Fuc(a1-2)Gal(b1-3)GlcNAc = target: Fuc(a1-2)Gal(b1-3)GlcNAc
How it was run: as §1

[6] = target: Fuc(a1-2)Gal(b1-3)GlcNAc(b1-2)Man(a1-3)[Fuc(a1-2)Gal(b1-3)GlcNAc(b1-2)Man(a1-6)]Man(b1-4)GlcNAc(b1-4)GlcNAc
How it was run: as §1

[7] = target: Fuc(a1-2)Gal(b1-3)GlcNAc(b1-2)Man(a1-3)[Fuc(a1-2)Gal(b1-3)GlcNAc(b1-2)Man(a1-6)]Man(b1-4)GlcNAc(b1-4)[Fuc(a1-6)]GlcNAc
How it was run: as §1

[8] = target: Fuc(a1-2)Gal(b1-3)GlcNAc(b1-3)Gal(b1-4)Glc
How it was run: as §1

[9] = target: Fuc(a1-2)Gal(b1-3)GlcNAc(b1-3)GalNAc
How it was run: as §1

[10] = target: Fuc(a1-2)Gal(b1-3)GlcNAc(b1-3)[Fuc(a1-2)Gal(b1-3)GlcNAc(b1-6)]GalNAc
How it was run: as §1

[11] = target: Fuc(a1-2)Gal(b1-3)GlcNAc(b1-3)[Gal(b1-4)GlcNAc(b1-6)]Gal(b1-4)Glc
How it was run: as §1

[12] = target: Fuc(a1-2)Gal(b1-3)GlcNAc(b1-3)[Neu5Ac(a2-6)Gal(b1-4)GlcNAc(b1-6)]Gal(b1-4)Glc
How it was run: as §1

[13] = target: Fuc(a1-2)Gal(b1-3)GlcNAc6S
How it was run: as §1

[14] = target: Fuc(a1-2)Gal(b1-3)[Fuc(a1-4)]GlcNAc
How it was run: as §1

[15] = target: Fuc(a1-2)Gal(b1-3)[Fuc(a1-4)]GlcNAc(b1-2)Man(a1-3)[Fuc(a1-2)Gal(b1-3)[Fuc(a1-4)]GlcNAc(b1-2)Man(a1-3)]Man(b1-4)GlcNAc(b1-4)GlcNAc
How it was run: as §1

[16] = target: Fuc(a1-2)Gal(b1-3)[Fuc(a1-4)]GlcNAc(b1-2)Man(a1-3)[Fuc(a1-2)Gal(b1-3)[Fuc(a1-4)]GlcNAc(b1-2)Man(a1-6)]Man(b1-4)GlcNAc(b1-4)[Fuc(a1-6)]GlcNAc(b1-4)[Fuc(a1-6)]GlcNAc
How it was run: as §1

[17] = target: Fuc(a1-2)Gal(b1-3)[Fuc(a1-4)]GlcNAc(b1-3)[Fuc(a1-3)[Gal(b1-4)]GlcNAc(b1-6)]Gal(b1-4)Glc
How it was run: as §1

[18] = target: Fuc(a1-2)Gal(b1-3)[Fuc(a1-4)]GlcNAc(b1-3)[Gal(b1-4)GlcNAc(b1-6)]Gal(b1-4)Glc
How it was run: as §1

Fuc(a1-2)Gal(b1-4)Glc = target: Fuc(a1-2)Gal(b1-4)Glc
How it was run: as §1

Fuc(a1-2)Gal(b1-4)Glc6S = target: Fuc(a1-2)Gal(b1-4)Glc6S
How it was run: as §1

Fuc(a1-2)Gal(b1-4)GlcNAc = target: Fuc(a1-2)Gal(b1-4)GlcNAc
How it was run: as §1

[19] = target: Fuc(a1-2)Gal(b1-4)GlcNAc(b1-2)Man
How it was run: as §1

[20] = target: Fuc(a1-2)Gal(b1-4)GlcNAc(b1-2)Man(a1-3)[Fuc(a1-2)Gal(b1-4)GlcNAc(b1-2)Man(a1-6)]Man(b1-4)GlcNAc(b1-4)GlcNAc
How it was run: as §1

[21] = target: Fuc(a1-2)Gal(b1-4)GlcNAc(b1-2)Man(a1-3)[Fuc(a1-2)Gal(b1-4)GlcNAc(b1-2)Man(a1-6)]Man(b1-4)GlcNAc(b1-4)[Fuc(a1-6)]GlcNAc
How it was run: as §1

[22] = target: Fuc(a1-2)Gal(b1-4)GlcNAc(b1-2)[Fuc(a1-2)Gal(b1-4)GlcNAc(b1-4)]Man(a1-3)[Fuc(a1-2)Gal(b1-4)GlcNAc(b1-2)Man(a1-6)]Man(b1-4)GlcNAc(b1-4)GlcNAc
How it was run: as §1

[23] = target: Fuc(a1-2)Gal(b1-4)GlcNAc(b1-3)Gal(b1-4)GlcNAc
How it was run: as §1

[24] = target: Fuc(a1-2)Gal(b1-4)GlcNAc(b1-3)Gal(b1-4)GlcNAc(b1-2)Man(a1-3)[Fuc(a1-2)Gal(b1-4)GlcNAc(b1-3)Gal(b1-4)GlcNAc(b1-2)Man(a1-6)]Man(b1-4)GlcNAc(b1-4)GlcNAc
How it was run: as §1

B1: Cohesin-marm-DC-ASGPR (protein)
chain: LDITSHHHHHHDDLDAVRIKVDTVNAKPGDTVRIPVRFSGIPSKGIANCDFVYSYDPNVLEIIEIEPGDIIVDPNPDKSFDTAVYPDRKIIVFLFAEDSGTGAYAITKDGVFATIVAKVKEGAPNGLSVIKFVEVGGFANNDLVEQKTQFFDGGVNVGDTTEPATPTTPVTTPTTTDDLDAASSKFQRDLVTLRTDFSNFTSNTLAEIQALTSQGSSLQETIASLKAEVEGHKQELQAGASELQEHNKQKAHLGRCPHTCVCPSSFVCVPVHSEILLRVQQLVQDLNKLSCQVAILKNNATTERTCCPINWVEHQGSCYWFSRSGKTWPEAERYCQLENTHLVVINSREEQNFVQAHLGSAYTWMGLSDPEGVWKWVDGTDYSSGFQNWKPGQPDDWQGHGLGGGEDCAHFHPDGRWNDDVCQRSYHWVCEAGLTQASQDSHAS
For B1, the “glycan array binding signal (z-score)” value (Fuc(a1-2)Gal) was -0.26, the “glycan array binding signal (z-score)” value (Fuc(a1-2)Gal(b1-3)GalNAc) was -0.307 and the “glycan array binding signal (z-score)” value [1] was -0.307. The “glycan array binding signal (z-score)” value [2] was -0.268, the “glycan array binding signal (z-score)” value [3] was 0.919 and the “glycan array binding signal (z-score)” value [4] was -0.282. For the same binder, the “glycan array binding signal (z-score)” value [5] was -0.213, the “glycan array binding signal (z-score)” value (Fuc(a1-2)Gal(b1-3)GlcNAc) was -0.277 and the “glycan array binding signal (z-score)” value [6] was -0.215. The “glycan array binding signal (z-score)” value [7] was -0.204, the “glycan array binding signal (z-score)” value [8] was -0.3 and the “glycan array binding signal (z-score)” value [9] was -0.296. The “glycan array binding signal (z-score)” value [10] was -0.305, the “glycan array binding signal (z-score)” value [11] was -0.279 and the “glycan array binding signal (z-score)” value [12] was -0.279. The “glycan array binding signal (z-score)” value [13] was -0.059, the “glycan array binding signal (z-score)” value [14] was -0.259 and the “glycan array binding signal (z-score)” value [15] was -0.263. The “glycan array binding signal (z-score)” value [16] was -0.286, the “glycan array binding signal (z-score)” value [17] was -0.308 and the “glycan array binding signal (z-score)” value [18] was -0.301. For the same binder, the “glycan array binding signal (z-score)” value (Fuc(a1-2)Gal(b1-4)Glc) was -0.234, the “glycan array binding signal (z-score)” value (Fuc(a1-2)Gal(b1-4)Glc6S) was -0.294 and the “glycan array binding signal (z-score)” value (Fuc(a1-2)Gal(b1-4)GlcNAc) was -0.265. For the same binder, the “glycan array binding signal (z-score)” value [19] was -0.292, the “glycan array binding signal (z-score)” value [20] was -0.208 and the “glycan array binding signal (z-score)” value [21] was -0.194. For the same binder, the “glycan array binding signal (z-score)” value [22] was -0.267, the “glycan array binding signal (z-score)” value [23] was -0.301 and the “glycan array binding signal (z-score)” value [24] was -0.25.

From the supplement of paper PMC8728848
